# From publication PMC9911399, “Two distinct binding modes provide the RNA-binding protein RbFox with extraordinary sequence specificity”
# Substitutions are numbered along the chain they refer to; changes in the protein carry UniProt numbers. This is one part of the list.
# T1: RBFOX1 RRM (Homo sapiens, UniProt Q9NWB1 109-208)
# T1 sequence: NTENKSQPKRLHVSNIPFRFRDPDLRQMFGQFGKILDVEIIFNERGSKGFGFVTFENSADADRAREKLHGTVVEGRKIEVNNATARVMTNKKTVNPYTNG
# B1: ACGGGGA (DNA:RNA)
# RNA: GGGAGACCGGAAUUCAGAUUGUCCACGGGGAUUAAAUCCCGUCGUAGCCACCA
# DNA 1: CAATCTGAATTCCGGTCTCCC
# DNA 2: TGGTGGCTACGACGGGATT
# B2: AACUGAG (DNA:RNA)
# RNA: B1 RNA with C26A, G27C, G28U, G30A, A31G
# DNA 1: CAATCTGAATTCCGGTCTCCC
# DNA 2: TGGTGGCTACGACGGGATT
# B3: AGCGGGU (DNA:RNA)
# RNA: B1 RNA with C26G, G27C, A31U
# DNA 1: CAATCTGAATTCCGGTCTCCC
# DNA 2: TGGTGGCTACGACGGGATT
# B4: CCACACA (DNA:RNA)
# RNA: B1 RNA with A25C, G27A, G28C, G29A, G30C
# DNA 1: CAATCTGAATTCCGGTCTCCC
# DNA 2: TGGTGGCTACGACGGGATT
# B5: GAAGGCG (DNA:RNA)
# RNA: B1 RNA with A25G, C26A, G27A, G30C, A31G
# DNA 1: CAATCTGAATTCCGGTCTCCC
# DNA 2: TGGTGGCTACGACGGGATT
# B6: UCAUCAU (DNA:RNA)
# RNA: B1 RNA with A25U, G27A, G28U, G29C, G30A, A31U
# DNA 1: CAATCTGAATTCCGGTCTCCC
# DNA 2: TGGTGGCTACGACGGGATT
# B7: AACGACA (DNA:RNA)
# RNA: B1 RNA with C26A, G27C, G29A, G30C
# DNA 1: CAATCTGAATTCCGGTCTCCC
# DNA 2: TGGTGGCTACGACGGGATT
# B8: AGAGAUC (DNA:RNA)
# RNA: B1 RNA with C26G, G27A, G29A, G30U, A31C
# DNA 1: CAATCTGAATTCCGGTCTCCC
# DNA 2: TGGTGGCTACGACGGGATT
# B9: AUCUGGG (DNA:RNA)
# RNA: B1 RNA with C26U, G27C, G28U, A31G
# DNA 1: CAATCTGAATTCCGGTCTCCC
# DNA 2: TGGTGGCTACGACGGGATT
# B10: UACUAUU (DNA:RNA)
# RNA: GGGAGACCGGAAUUCAGAUUGUCCUACUAUUUUAAAUCCCGUCGUAGCCACCA
# DNA 1: CAATCTGAATTCCGGTCTCCC
# DNA 2: TGGTGGCTACGACGGGATT
# B11: AGCCUGG (DNA:RNA)
# RNA: B1 RNA with C26G, G27C, G28C, G29U, A31G
# DNA 1: CAATCTGAATTCCGGTCTCCC
# DNA 2: TGGTGGCTACGACGGGATT
# B12: ACCUACA (DNA:RNA)
# RNA: B1 RNA with G27C, G28U, G29A, G30C
# DNA 1: CAATCTGAATTCCGGTCTCCC
# DNA 2: TGGTGGCTACGACGGGATT
# B13: GCAGGCU (DNA:RNA)
# RNA: B1 RNA with A25G, G27A, G30C, A31U
# DNA 1: CAATCTGAATTCCGGTCTCCC
# DNA 2: TGGTGGCTACGACGGGATT
# B14: CUGGCUC (DNA:RNA)
# RNA: B1 RNA with A25C, C26U, G29C, G30U, A31C
# DNA 1: CAATCTGAATTCCGGTCTCCC
# DNA 2: TGGTGGCTACGACGGGATT
# B15: CGAGAUA (DNA:RNA)
# RNA: B1 RNA with A25C, C26G, G27A, G29A, G30U
# DNA 1: CAATCTGAATTCCGGTCTCCC
# DNA 2: TGGTGGCTACGACGGGATT
# B16: ACAAAGU (DNA:RNA)
# RNA: B1 RNA with G27A, G28A, G29A, A31U
# DNA 1: CAATCTGAATTCCGGTCTCCC
# DNA 2: TGGTGGCTACGACGGGATT
# B17: UACUAUG (DNA:RNA)
# RNA: B10 RNA with U31G
# DNA 1: CAATCTGAATTCCGGTCTCCC
# DNA 2: TGGTGGCTACGACGGGATT
# B18: UGACCCA (DNA:RNA)
# RNA: B1 RNA with A25U, C26G, G27A, G28C, G29C, G30C
# DNA 1: CAATCTGAATTCCGGTCTCCC
# DNA 2: TGGTGGCTACGACGGGATT
# B19: UAUAAUU (DNA:RNA)
# RNA: B10 RNA with C27U, U28A
# DNA 1: CAATCTGAATTCCGGTCTCCC
# DNA 2: TGGTGGCTACGACGGGATT
# B20: UCUUAUU (DNA:RNA)
# RNA: B10 RNA with A26C, C27U
# DNA 1: CAATCTGAATTCCGGTCTCCC
# DNA 2: TGGTGGCTACGACGGGATT
# Molecular target: T1, RBFOX1 RRM
# Test: EMSA; HiTS-Eq, 1 nM pool, 10 min; buffer printed only for the single-RNA assays: 10 mM Tris pH 7.5, 150 mM NaCl, 3.4 mM EDTA, 0.001% NP-40, 30 C
# Settings: tags: His6 N-terminal (pET28a); label: 5' 32P
# How it was run: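 Purified RbFox RRM (wild type or mutant) was equilibrated for 10 min in 50 µL with 1 nM of a 5′-radiolabelled pool of RNA with 7 randomized nucleotides, its flanks annealed to DNA oligonucleotides, across increasing protein concentrations. Free RNA was separated by 8% native PAGE, excised, reverse-transcribed, PCR-barcoded and sequenced on an Illumina HiSeq 2500. Relative association constants came from read-count changes of each variant against the control reaction, normalised to the cognate motif.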
row,Binder,binding signal
1,B1,0.0118 KA relative to UGCAUGU
2,B2,0.00736 KA relative to UGCAUGU
3,B3,0.0177 KA relative to UGCAUGU
4,B4,0.000537 KA relative to UGCAUGU
5,B5,0.0185 KA relative to UGCAUGU
6,B6,0.00181 KA relative to UGCAUGU
7,B7,0.000724 KA relative to UGCAUGU
8,B8,0.0129 KA relative to UGCAUGU
9,B9,0.00383 KA relative to UGCAUGU
10,B10,0.0027 KA relative to UGCAUGU
11,B11,0.0177 KA relative to UGCAUGU
12,B12,0.00126 KA relative to UGCAUGU
13,B13,0.0121 KA relative to UGCAUGU
14,B14,0.0211 KA relative to UGCAUGU
15,B15,0.00339 KA relative to UGCAUGU
16,B16,0.00135 KA relative to UGCAUGU
17,B17,0.0137 KA relative to UGCAUGU
18,B18,0.00291 KA relative to UGCAUGU
19,B19,0.0037 KA relative to UGCAUGU
20,B20,0.00464 KA relative to UGCAUGU
